# From article PMC6919601, “Identification of Plasmodium dipeptidyl aminopeptidase allosteric inhibitors by high throughput screening” (PLoS ONE, 2019)
# Values joined by “and” are separate entries in the source; they are usually repeats but may differ in a detail not shown here. Equal values may be shown once. The campaign covered roughly 110,000 compounds. About 230 (0.21%) showed an effect of 50% or more. Some of the results follow.
# Biological target: DPAP1 (Plasmodium falciparum, UniProt Q8IIJ9)
# Test: primary screen, percent inhibition; read by cleavage of a fluorogenic dipeptide substrate; higher = more effect of the substance
# Parameters: species or system P. falciparum D10 trophozoite lysates; single well
# 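Also: 30 min substrate incubation versus DMSO and 10 µM JCP410 controls.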
# Sequence of DPAP1 (Q8IIJ9 whole entry, looked up): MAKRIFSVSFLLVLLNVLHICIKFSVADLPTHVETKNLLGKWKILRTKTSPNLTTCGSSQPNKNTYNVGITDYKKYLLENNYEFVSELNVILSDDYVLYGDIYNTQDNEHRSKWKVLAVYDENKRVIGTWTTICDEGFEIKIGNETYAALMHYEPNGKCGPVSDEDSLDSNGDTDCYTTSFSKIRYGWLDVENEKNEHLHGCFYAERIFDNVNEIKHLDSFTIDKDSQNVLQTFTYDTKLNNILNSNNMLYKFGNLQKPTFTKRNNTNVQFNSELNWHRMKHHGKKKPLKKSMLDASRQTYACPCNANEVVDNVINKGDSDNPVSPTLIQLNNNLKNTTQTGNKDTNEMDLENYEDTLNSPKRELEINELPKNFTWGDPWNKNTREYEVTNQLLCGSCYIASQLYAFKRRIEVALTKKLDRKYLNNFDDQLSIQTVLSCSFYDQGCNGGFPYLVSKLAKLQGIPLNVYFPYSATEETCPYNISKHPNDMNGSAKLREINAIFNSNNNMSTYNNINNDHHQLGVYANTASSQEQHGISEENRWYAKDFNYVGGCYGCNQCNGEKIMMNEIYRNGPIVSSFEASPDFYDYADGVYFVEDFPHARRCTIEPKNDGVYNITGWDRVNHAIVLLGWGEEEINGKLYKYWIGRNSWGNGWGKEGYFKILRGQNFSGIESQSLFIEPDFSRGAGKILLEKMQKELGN
row,Compound,% Inhibition @ 10 uM
1,Cc1cccc(C2NC(c3cccc(C)c3)C(C)C(=O)C2C)c1 (stereo not drawn),-4.51%
2,Oc1oc(-c2ccccc2)nc1/C=N/c1ccccn1,7.62%
3,Cn1c(=O)c2c(nc3n(C4CCCCC4)c(-c4ccc(Cl)cc4)cn23)n(C)c1=O,-4.91%
4,CC1=CC(C)(C)N(C(=O)Nc2ccc(C)cc2)c2ccccc21,-1.36%
5,N#Cc1ccccc1Sc1ccccc1C(=O)NCc1ccc2c(c1)OCO2,7.93%
6,Cc1ccc(OCC(=O)Nc2ccc(CC#N)cc2)cc1C,-1.52%
7,COc1cc(/C=C/C(=O)Nc2nnc(CC(C)(C)C)s2)cc(OC)c1OC,8.12%
8,c1ccc2c(NCCN3CCCCC3)c3c(nc2c1)CCC3,2.74%
9,COc1cccc(C2C(C(=O)c3ccc(Br)cc3)=C(O)C(=O)N2c2cccnc2)c1 (stereo not drawn),1.05%
10,O=C(O)/C(S)=C\c1ccccc1,19.2%
11,CCC(C)(C)C(=O)Nc1ccc(C(N)=O)cc1,1.29%
12,CCCCNC(=O)c1[nH]nnc1-c1ccccc1O,0.847%
13,Fc1ccc(CN2CCN(c3ccc(Cl)cc3)CC2)cc1,5.55%
14,CN(Cc1ccccc1F)CC(O)c1ccccc1 (stereo not drawn),-3.8%
15,CCOC(=O)C1=C(C)N=c2s/c(=C\c3ccc(N(C)C)o3)c(=O)n2C1c1cccs1 (stereo not drawn),-3.98%
16,COc1ccc(/C=C2/SC(=O)N(CCc3nnc(N)s3)C2=O)cc1,3.16%
17,O=C1CSC(c2cccc(Cl)c2Cl)N1c1ccccn1 (stereo not drawn),-3.69%
18,Cc1cc(C)n2nc(COc3ccccc3)nc2n1,-6.04%
19,CCCc1nc(C)cc(N2CCCC(C)C2)n1 (stereo not drawn),11.1%
20,CCOC(=O)N1CCN(C(=O)Cn2sc3nc(C)cc(C)c3c2=O)CC1,9.33%
21,COc1cccc(-c2nnc(-c3ccncc3)o2)c1,2.41%
22,CCOC(=O)c1nnn(-c2nonc2N)c1CSc1nc2cc(C)ccc2[nH]1,6.37%
23,CC(C)C[C@H](NC(=O)c1cc2cc(OCCN3CCOCC3)ccc2o1)C(=O)NCC#N,0.173%
24,COCC(C)NC(=O)Cn1nc(C)c(NC(=O)c2cc(-c3ccccc3F)no2)c1C (stereo not drawn),5.59%
25,Cc1cccc(-c2cc(C(=O)N3CCN(c4ncccn4)CC3)c3ccccc3n2)c1,2.32%
26,CC1=CC(=O)C=C(C)C1=NOC(=O)/C=C\c1ccccc1,3.34%

row,Compound,% Inhibition @ 10 uM
1,COc1cccc(/C=C2/C(=N)N3N=C(C4CCCCC4)SC3=NC2=O)c1O,5%
2,CCCCOc1ccc(C2c3c(-c4cc(C)ccc4O)n[nH]c3C(=O)N2CCO)cc1OC (stereo not drawn),-1.15%
3,COCCN1C(=O)C(O)=C(C(=O)c2ccc(OC)c(C)c2)C1c1ccc(F)cc1 (stereo not drawn),1.86%
4,Cc1cc(C)c(NC(=S)NC(=O)c2ccccc2)c(C)c1,15.4%
5,CCS(=O)(=O)N1CCC2(CC1)OC(=O)C(C)=C2C(=O)N1CCN(c2ncccn2)CC1,2.91%
6,CC(C)=CCCC(C)CN(CCO)Cc1ccccc1 (stereo not drawn),2.7%
7,O=C(O)C1C2CCC(O2)C1C(=O)Nc1ccccc1Cl (stereo not drawn),0.231%
8,O=C1NC(=O)/C(=C\c2ccc(Sc3ccc(Cl)cc3)o2)N1,5.37%
9,COC(=O)c1ccc(C2Oc3ccccc3C3CC(c4ccccc4O)=NN32)cc1 (stereo not drawn),0.0719%
10,Cc1ccc(S(=O)(=O)NC(=O)COc2ccccc2)cc1,0.389%
11,Cc1ccc(S(=O)(=O)c2nc(S(C)(=O)=O)sc2N2CCC(C(N)=O)CC2)cc1,-5.89%
12,OCCN(Cc1ccccc1)CC1CC=CCC1 (stereo not drawn),1.38%
13,CC(C)N1CC(C)C(O)(c2ccccc2)CC1C (stereo not drawn),-1.93%
14,Nc1nc(N)c2ncc(C(=O)CCc3ccccc3)nc2n1,-6.07%
15,CCCCC(O)(CCCC)c1ccccc1O,-2.44%
16,COc1ccc(CCNCc2ccc(C)cc2)cc1OC,0.131%
17,CCOC(=O)N1CCC(NC(=O)CN2C(=O)CSc3nc(C)cc(C)c32)CC1,-2.37%
18,O=C(O)CCC(=O)Nc1ccc(NC(=O)c2ccco2)cc1,0.777% and -2.29%
19,CCN(CC)C(=O)CN(c1ccc(C)cc1)S(=O)(=O)c1ccc(F)cc1,0.873%
20,CC(C)Sc1nc(O)c2cnn(-c3ccccc3)c2n1,1.9%
21,NC(=O)c1c(NS(=O)(=O)c2ccc(F)cc2)sc2c1CCCC2,-3.44%
22,COc1ccc(-c2ccnc3c(OC)ccc(N)c23)cc1OC,4.27%
23,CCCCSc1nc2c(c(=O)n1C)SC(C)C2 (stereo not drawn),1.97%
24,CC1CCN(C(=O)CN(c2cccc(F)c2)S(C)(=O)=O)CC1,2.95%
25,CC(C)C[C@H](Nc1nc(-c2ccc([N+](=O)[O-])cc2)cs1)C(=O)NCC#N,-4.72%
26,COC(=O)c1c(NC(=O)COc2ccc3c(C)cc(=O)oc3c2)sc2c1CCCC2,11.8%

row,Compound,% Inhibition @ 10 uM
1,CCCC[C@H](NC(=O)[C@H](CCC)N[C@@H](c1ccc(-c2ccc(S(C)(=O)=O)cc2)cc1)C(F)(F)F)C(=O)c1nnc(-c2ccco2)o1,-3.04%
2,CN1CCC(O)(c2ccccc2)C(C)(C)C1 (stereo not drawn),1.41%
3,O=C(NCC1CCCO1)c1ccc(F)cc1 (stereo not drawn),-0.414%
4,CCOC(=O)c1c(NC(=O)CSc2nc(SC)ns2)sc2c1CCCC2,-4.75%
5,COc1cccc(/C=C2\C(=O)N(c3ccc(Cl)cc3)N=C2C)c1OC,0.716%
6,Cc1onc(-c2ccccc2)c1C(=O)NC1=NCCS1,-5.82%
7,O=C1/C(=C/c2cccnc2)Sc2ccccc21,-1.59%
8,CCN(CC)CCn1c(NC(=O)c2ccc(Cl)cc2Cl)nc2ccccc21,-5.47%
9,Cc1ccc(S(=O)(=O)c2sc(N)c(C#N)c2C)cc1,1.84%
10,Cc1ccccc1NC(=O)CN1C(=O)c2ccccc2C1=O,0.545%
11,COc1ccc(C2(C(=O)N3CCCCC3)CCCC2)cc1OC,6.16%
12,O=C(COc1ccc(Cl)cc1)Nc1ccccc1C(F)(F)F,7.15%
13,CCc1ccc(C2CC(c3cccc(Br)c3)n3ncnc3N2)cc1 (stereo not drawn),-11%
14,CCn1c(=S)[nH]c2sc3c(c2c1=O)CCC3,64.7%
15,c1ccc(N2CCN(Cc3ccoc3)CC2)nc1,4.81%
16,Cc1ccc(C2=NN3C(C2)c2ccccc2OC3c2ccncc2)cc1 (stereo not drawn),38.7%
17,Cc1cccc(C(=O)Nc2ccc(NC(=O)c3cccc(C)c3)c([N+](=O)[O-])c2)c1,1.66%
18,O=C(CCCOc1ccc(Cl)cc1Cl)Nc1ccc(S(=O)(=O)N2CCCC2)cc1,-2.94%
19,N#CCNC(=O)[C@H](CSCc1ccccc1)NC(=O)c1cccs1,-6.56%
20,COCCNC(=S)NCCc1c(C)[nH]c2ccc(Cl)cc12,-2.16%
21,Cc1cc2nc(O)c(O)nc2cc1S(=O)(=O)N1CCOCC1,5.4%
22,CCN(CC)C(=O)C1CCCN(Cc2cccc(Br)c2)C1 (stereo not drawn),-4.5%
23,Cc1ccc(S(=O)(=O)Nc2cnc3ccccc3c2)cc1,1.42%
24,Cc1nn(-c2ccccc2)c2c1N(CC(=O)N1CCC(Cc3ccccc3)CC1)C(=O)CS2,-0.656%
25,CCOc1ccc(NC2=C(Cl)C(=O)N(c3ccccc3)C2=O)cc1,3.19%
26,Cc1cc(CSC(=N)N)cs1,2.57%

row,Compound,% Inhibition @ 10 uM
1,COc1ccc(S(=O)(=O)Nc2cccc3cccnc23)cc1,-4.52%
2,O=C(O)CC1(CC(=O)Nc2ccc(C(F)(F)F)cc2)CCCC1,-4.14%
3,CSc1ccc(S(=O)(=O)N(CC(=O)N2CCCCCC2)c2ccc(C)cc2)cc1,-1.64%
4,CCc1ccc(CNC(=O)Cn2nc(-c3ccccc3)ccc2=O)cc1,0.514%
5,COc1ccc(OC)c(-n2cnc3cc(C(=O)NCCC4=CCCCC4)ccc32)c1,1.2%
6,O=C(Cn1nc(C(F)(F)F)cc1C1CC1)Nc1ccc(Cl)cc1F,-5.6%
7,CCOc1ccccc1C1NC(=S)NC(c2ccccc2OCC)C12C(=O)NC(=O)NC2=O (stereo not drawn),-2.01%
8,CN1C(=O)[C@@H]2[C@H](C1=O)[C@H](C(=O)c1ccccc1)N1c3ccccc3C=C[C@@H]21,2.95%
9,CCN(CC)C(=O)/C(=C/c1ccc(OC)cc1)NC(=O)c1ccc(OC)cc1,-2.87%
10,COC(=O)C1=CN(CCCN2CCCC2=O)C=C(C(=O)OC)C1c1ccccc1C(F)(F)F,-0.386%
11,COCCNC(=O)C1CCN(c2nnc(C)c3c(C)n(-c4ccc(C)cc4)nc23)CC1,-2.14%
12,O=S(=O)(c1ccc(Br)cc1Br)N1CCOCC1,-7.88%
13,Oc1ccc(OC(c2ccccc2)C(O)c2ccccc2)cc1 (stereo not drawn),1.92%
14,Cc1cc(C(=O)O)c(CCCN)s1,1.42%
15,CC1=C(C(=O)OCCc2ccccc2)C(c2cccc(Cl)c2Cl)NC(=O)N1 (stereo not drawn),-6.08%
16,CC(CCN1CCN(C)CC1)c1ccccc1 (stereo not drawn),-3.57%
17,COc1cc(C)c(CN2CCN(Cc3ccccc3)CC2)cc1C,3.16%
18,O=S(=O)(c1cccc2cccnc12)N1CCN(Cc2ccc3c(c2)OCO3)CC1,2.01%
19,Cc1ccc(/C=C2/SC(=O)N(CN3CCOCC3)C2=O)cc1,-3.37%
20,CC(C)=CCCC(C)CN1CCCC(C(N)=O)C1 (stereo not drawn),4.9%
21,O=S(=O)(c1ccc(-c2csc(Nc3cc(Cl)cc(Cl)c3)n2)cc1)N1CCCC1,-0.233%
22,C=CCN1C(=O)C2(NC(CC(C)C)C3C(=O)N(c4ccccc4)C(=O)C32)c2ccccc21 (stereo not drawn),2.27%
23,Cc1ccccc1NC(=O)/C=C/c1ccccc1,-1.69%
24,Cc1ccccc1-c1nc(CN2CCC(C(=O)NCCCN3CC(C)CC(C)C3)CC2)c(C)o1 (stereo not drawn),-4.71%
